This is one part of the list.
What was measured:
Assay in all cases: glycan array binding signal (z-score within array); higher = stronger binding
Conditions in all cases: glycan notation: IUPAC condensed, linker removed
[1] = molecular target: GalNAc(b1-4)GlcNAc
Summary of the method: (§1)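 From the Consortium for Functional Glycomics database, 3228 arrays were curated, keeping only those whose protein sequence was available. Binding is given as a within-array Z-score averaged across arrays sharing a protein sequence and across linkers. Negative Z-scores can be read as non-binding.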

[2] = molecular target: GalNAc(b1-4)GlcNAc(b1-2)Man
Summary of the method: as §1

[3] = molecular target: GalNAc(b1-4)GlcNAc(b1-2)Man(a1-3)[GalNAc(b1-4)GlcNAc(b1-2)Man(a1-6)]Man(b1-4)GlcNAc(b1-4)GlcNAc
Summary of the method: as §1

[4] = molecular target: GalNAc(b1-4)GlcNAc(b1-3)GalNAc(b1-4)GlcNAc
Summary of the method: as §1

[5] = molecular target: GalNAc(b1-4)GlcNAc6S
Summary of the method: as §1

[6] = molecular target: GalNAc(b1-6)GalNAc
Summary of the method: as §1

[7] = molecular target: GalNAc3S(b1-4)GlcNAc
Summary of the method: as §1

[8] = molecular target: GalNAc3S(b1-4)GlcNAc3S
Summary of the method: as §1

[9] = molecular target: GalNAc3S(b1-4)[Fuc(a1-3)]GlcNAc
Summary of the method: as §1

[10] = molecular target: GalNAc4S6S(b1-4)GlcNAc
Summary of the method: as §1

[11] = molecular target: GalNAc6S(b1-4)GlcNAc
Summary of the method: as §1

[12] = molecular target: Glc(a1-4)Glc
Summary of the method: as §1

[13] = molecular target: Glc(a1-4)Glc(a1-4)Glc(a1-4)Glc
Summary of the method: as §1

[14] = molecular target: Glc(a1-6)Glc(a1-6)Glc
Summary of the method: as §1

[15] = molecular target: Glc(a1-6)Glc(a1-6)Glc(a1-6)Glc
Summary of the method: as §1

[16] = molecular target: Glc(b1-4)Glc
Summary of the method: as §1

[17] = molecular target: Glc(b1-6)Glc
Summary of the method: as §1

[18] = molecular target: GlcA(b1-3)Gal
Summary of the method: as §1

[19] = molecular target: GlcA(b1-3)GlcNAc
Summary of the method: as §1

[20] = molecular target: GlcA(b1-6)Gal
Summary of the method: as §1

[21] = molecular target: GlcA3S(b1-3)Gal(b1-4)GlcNAc(b1-2)Man
Summary of the method: as §1

[22] = molecular target: GlcA3S(b1-3)Gal(b1-4)GlcNAc(b1-3)Gal(b1-4)Glc
Summary of the method: as §1

[23] = molecular target: GlcNAc(a1-3)Gal(b1-4)GlcNAc
Summary of the method: as §1

[24] = molecular target: GlcNAc(a1-4)Gal(b1-3)GlcNAc
Summary of the method: as §1

[25] = molecular target: GlcNAc(a1-4)Gal(b1-4)GalNAc
Summary of the method: as §1

[26] = molecular target: GlcNAc(a1-4)Gal(b1-4)GlcNAc
Summary of the method: as §1

[27] = molecular target: GlcNAc(a1-4)Gal(b1-4)GlcNAc(b1-3)Gal(b1-4)Glc
Summary of the method: as §1

[28] = molecular target: GlcNAc(a1-4)Gal(b1-4)GlcNAc(b1-3)Gal(b1-4)GlcNAc
Summary of the method: as §1

[29] = molecular target: GlcNAc(a1-4)Gal(b1-4)GlcNAc(b1-3)Gal(b1-4)GlcNAc(b1-3)Gal(b1-4)GlcNAc
Summary of the method: as §1

[30] = molecular target: GlcNAc(a1-4)Gal(b1-4)GlcNAc(b1-3)Gal(b1-4)[Fuc(a1-3)]GlcNAc(b1-3)Gal(b1-4)[Fuc(a1-3)]GlcNAc
Summary of the method: as §1

[31] = molecular target: GlcNAc(a1-6)Gal(b1-4)GlcNAc
Summary of the method: as §1

[32] = molecular target: GlcNAc(b1-2)Gal(b1-3)GalNAc
Summary of the method: as §1

[33] = molecular target: GlcNAc(b1-2)Man(a1-3)[GlcNAc(b1-2)Man(a1-6)]Man(b1-4)GlcNAc(b1-4)GlcNAc
Summary of the method: as §1

[34] = molecular target: GlcNAc(b1-2)Man(a1-3)[GlcNAc(b1-2)Man(a1-6)]Man(b1-4)GlcNAc(b1-4)[Fuc(a1-6)]GlcNAc
Summary of the method: as §1

[35] = molecular target: GlcNAc(b1-2)Man(a1-3)[GlcNAc(b1-4)][GlcNAc(b1-2)Man(a1-6)]Man(b1-4)GlcNAc(b1-4)GlcNAc
Summary of the method: as §1

[36] = molecular target: GlcNAc(b1-2)Man(a1-3)[GlcNAc(b1-4)][GlcNAc(b1-2)Man(a1-6)]Man(b1-4)GlcNAc(b1-4)[Fuc(a1-6)]GlcNAc
Summary of the method: as §1

[37] = molecular target: GlcNAc(b1-2)[GlcNAc(b1-4)]Man(a1-3)[GlcNAc(b1-2)Man(a1-6)]Man(b1-4)GlcNAc(b1-4)GlcNAc
Summary of the method: as §1

[38] = molecular target: GlcNAc(b1-2)[GlcNAc(b1-4)]Man(a1-3)[GlcNAc(b1-4)][GlcNAc(b1-2)Man(a1-6)]Man(b1-4)GlcNAc(b1-4)GlcNAc
Summary of the method: as §1

[39] = molecular target: GlcNAc(b1-2)[GlcNAc(b1-4)]Man(a1-3)[GlcNAc(b1-4)][GlcNAc(b1-2)[GlcNAc(b1-6)]Man(a1-6)]Man(b1-4)GlcNAc(b1-4)GlcNAc
Summary of the method: as §1

[40] = molecular target: GlcNAc(b1-2)[GlcNAc(b1-4)]Man(a1-3)[GlcNAc(b1-4)][GlcNAc(b1-2)[GlcNAc(b1-6)]Man(a1-6)]Man(b1-4)GlcNAc(b1-4)[Fuc(a1-6)]GlcNAc
Summary of the method: as §1

[41] = molecular target: GlcNAc(b1-2)[GlcNAc(b1-6)]Man(a1-6)[GlcNAc(b1-2)Man(a1-3)]Man(b1-4)GlcNAc(b1-4)GlcNAc
Summary of the method: as §1

[42] = molecular target: GlcNAc(b1-2)[GlcNAc(b1-6)]Man(a1-6)[GlcNAc(b1-2)Man(a1-3)]Man(b1-4)GlcNAc(b1-4)[Fuc(a1-6)]GlcNAc
Summary of the method: as §1

[43] = molecular target: GlcNAc(b1-2)[GlcNAc(b1-6)]Man(a1-6)[GlcNAc(b1-4)][GlcNAc(b1-2)Man(a1-3)]Man(b1-4)GlcNAc(b1-4)GlcNAc
Summary of the method: as §1

[44] = molecular target: GlcNAc(b1-3)Fuc
Summary of the method: as §1

[45] = molecular target: GlcNAc(b1-3)Gal
Summary of the method: as §1

B1: VLRB.aGPA.23-GCN4-biotin (Petromyzon marinus) (protein)
chain: ACPSQCSCSGTEVNCAGKSLASVPAGIPTTTRVLYLNSNQITKLEPGVFDRLANLRELHLWGNQLVSLPPGVFDNLANLEKLWLNSNQLTSLPAGLFDRLVNLEHLGLCCMKLTELPSGAFDKLTRLKQLGLDQNQLKSIPDGAFARLPSLTHVWLHTNPWDCQCTDILYLSGWVAQHSSIVGEGWPWRHSPDSAKCSGTNTPVRAVTEASTSPSKCP
glycan array binding signal (z-score) [1]: -0.059 | glycan array binding signal (z-score) [2]: -0.084 | glycan array binding signal (z-score) [3]: -0.068 | glycan array binding signal (z-score) [4]: -0.084 | glycan array binding signal (z-score) [5]: -0.082 | glycan array binding signal (z-score) [6]: -0.073 | glycan array binding signal (z-score) [7]: -0.071 | glycan array binding signal (z-score) [8]: -0.084 | glycan array binding signal (z-score) [9]: -0.082 | glycan array binding signal (z-score) [10]: -0.081 | glycan array binding signal (z-score) [11]: -0.083 | glycan array binding signal (z-score) [12]: -0.077 | glycan array binding signal (z-score) [13]: -0.064 | glycan array binding signal (z-score) [14]: -0.077 | glycan array binding signal (z-score) [15]: -0.076 | glycan array binding signal (z-score) [16]: -0.08 | glycan array binding signal (z-score) [17]: -0.076 | glycan array binding signal (z-score) [18]: -0.078 | glycan array binding signal (z-score) [19]: -0.034 | glycan array binding signal (z-score) [20]: -0.085 | glycan array binding signal (z-score) [21]: -0.084 | glycan array binding signal (z-score) [22]: -0.08 | glycan array binding signal (z-score) [23]: -0.077 | glycan array binding signal (z-score) [24]: -0.077 | glycan array binding signal (z-score) [25]: -0.079 | glycan array binding signal (z-score) [26]: -0.076 | glycan array binding signal (z-score) [27]: -0.071 | glycan array binding signal (z-score) [28]: -0.079 | glycan array binding signal (z-score) [29]: -0.081 | glycan array binding signal (z-score) [30]: -0.069 | glycan array binding signal (z-score) [31]: -0.087 | glycan array binding signal (z-score) [32]: -0.053 | glycan array binding signal (z-score) [33]: -0.082 | glycan array binding signal (z-score) [34]: -0.072 | glycan array binding signal (z-score) [35]: -0.078 | glycan array binding signal (z-score) [36]: -0.088 | glycan array binding signal (z-score) [37]: -0.08 | glycan array binding signal (z-score) [38]: -0.085 | glycan array binding signal (z-score) [39]: -0.087 | glycan array binding signal (z-score) [40]: -0.085 | glycan array binding signal (z-score) [41]: -0.079 | glycan array binding signal (z-score) [42]: -0.075 | glycan array binding signal (z-score) [43]: -0.085 | glycan array binding signal (z-score) [44]: -0.079 | glycan array binding signal (z-score) [45]: -0.077

From the supplement of paper PMC8728848
